The text below walks through data of patent publication EP3057951B1, “METHYLENE LINKED QUINOLINYL MODULATORS OF ROR-GAMMA-T” (Janssen Pharmaceutica NV, priority 2013, dated 2015).

Where a name gives a salt, the structure may show the parent alone.

One assay has as its system IL-17 production by CD4 T cells. Kind of assay: Human Th17 Assay (IL-17 production under Th17 differentiation conditions). To be noted: Homo sapiens, CD4+ T, 72 h, read-out: Human Th17 Assay, IC50, IL-17 production, CD4 T cells, 3 days.
For the compound `Cc1nc2ccc(C(O)(c3ccc(C(F)(F)F)nc3)c3cncn3C)cc2c(Cl)c1Cc1ccc(C(F)(F)F)cc1` (single isomer, unassigned) [Example 26b, (4-Chloro-2-methyl-3-(4-(trifluoromethyl)benzyl)quinolin-6-yl)(1-methyl-1H-imidazol-5-yl)(6-(trifluoromethyl)pyridin-3-yl)methanol], the IC50 (commonly the concentration needed to halve the response being measured) came out at 45 nM.
On the same count and under the same terms, as for `COc1ccc(C(O)(c2cccnc2)c2ccc3nc(OC)c(Cc4ccc(-n5cccn5)cc4)c(Cl)c3c2)cc1OC` (centres unmarked) [Example 159a, (3-(4-(1H-Pyrazol-1-yl)benzyl)-4-chloro-2-methoxyquinolin-6-yl)(3,4-dimethoxyphenyl)(pyridin-3-yl)methanol], the figure is 200 nM; as for `COc1c(Cc2ccccc2)c(C(F)(F)F)nc2ccc(C(O)(c3ccccn3)c3cncn3C)cc12` (single isomer, unassigned) [Example 98c, (3-Benzyl-4-methoxy-2-(trifluoromethyl)quinolin-6-yl)(1-methyl-1H-imidazol-5-yl)(pyridin-2-yl)methanol], 690 nM.
The same measure, in the same setting: under `Cn1cncc1C(O)(c1ccc(C(F)(F)F)nc1)c1ccc2nc(C#N)c(Cc3ccc(F)cc3)c(C#N)c2c1` (single isomer, unassigned) [Example 53b, 3-(4-Fluorobenzyl)-6-(hydroxy(1-methyl-1H-imidazol-5-yl)(6-(trifluoromethyl)pyridin-3-yl)methyl)quinoline-2,4-dicarbonitrile] stands 640 nM; under `COc1nc2ccc(C(O)(c3ccc(F)cc3)c3cncn3C)cc2c(Cl)c1Cc1ccc(-n2cccn2)cc1` (single isomer, unassigned) [Example 160c, (3-(4-(1H-Pyrazol-1-yl)benzyl)-4-chloro-2-methoxyquinolin-6-yl)(4-fluorophenyl)(1-methyl-1H-imidazol-5-yl)methanol], 28 nM; under `COc1nc2ccc(C(O)(c3ccc(C)nc3C)c3cnnn3C)cc2c(Cl)c1Cc1ccc(C(F)(F)F)nc1` (single isomer, unassigned) [Example 40c, (4-Chloro-2-methoxy-3-((6-(trifluoromethyl)pyridin-3-yl)methyl)quinolin-6-yl)(2,6-dimethylpyridin-3-yl)(1-methyl-1H-1,2,3-triazol-5-yl)methanol], 20 nM.
Same read-out and setting: under `COc1nc2ccc(C(O)(c3ccccc3)C3CCN(C(C)=O)CC3)cc2c(Cl)c1Cc1ccc(-n2cncn2)cc1` (single isomer, unassigned) [Example 18b, 1-(4-((3-(4-(1H-1,2,4-Triazol-1-yl)benzyl)-4-chloro-2-methoxyquinolin-6-yl)(hydroxy)(phenyl)methyl)piperidin-1-yl)ethanone] stands 14 nM; under `Cc1cc(C(O)(c2ccc(Cl)cc2)c2cncn2C)cc2c(Cl)c(Cc3ccc(-n4cccn4)cc3)c(N3CCC3)nc12` (single isomer, unassigned) [Example 136c, {2-Azetidin-1-yl-4-chloro-8-methyl-3-[4-(1H-pyrazol-1-yl)benzyl]quinolin-6-yl}(4-chlorophenyl)(1-methyl-1H-imidazol-5-yl)methanol], 74 nM; under `COc1nc2ccc(C(O)(c3ccccn3)c3cncn3C)cc2c(Cl)c1Cc1ccc(-n2cccn2)cc1` (single isomer, unassigned) [Example 64c, (3-(4-(1H-Pyrazol-1-yl)benzyl)-4-chloro-2-methoxyquinolin-6-yl)(1-methyl-1H-imidazol-5-yl)(pyridin-2-yl)methanol], 49 nM.
For the compound `Cn1cncc1C(O)(c1ccc(C(F)(F)F)nc1)c1ccc2nc(N3CC(O)C3)c(Cc3ccc(-n4cccn4)cc3)c(Cl)c2c1` (single isomer, unassigned) [Example 134b, 1-(4-Chloro-6-{hydroxy(1-methyl-1H-imidazol-5-yl)[6-(trifluoromethyl)pyridin-3-yl]methyl}-3-[4-(1H-pyrazol-1-yl)benzyl]quinolin-2-yl)azetidin-3-ol], the half-inhibitory concentration (IC50) was around 2000 nM.

The same assay, now with this note: read-out: Human Th17 Assay, IC50; IL-17 production, CD4 T cells, 3 days.
For `COc1nc2ccc(C(O)(c3cnnn3C)C3CCN(C(C)=O)CC3)cc2c(Cl)c1Cc1ccc(C(F)(F)F)cc1` (single isomer, unassigned) [Example 74c, 1-(4-((4-Chloro-2-methoxy-3-(4-(trifluoromethyl)benzyl)quinolin-6-yl)(hydroxy)(1-methyl-1H-1,2,3-triazol-5-yl)methyl)piperidin-1-yl)ethanone], the IC50 was determined as 36 nM.
As for `COc1nc2ccc(C(O)(c3ccc(C#N)cc3)c3cncn3C)cc2c(Cl)c1Cc1ccc(-n2cncn2)cc1` (single isomer, unassigned) [Example 14b, 4-((3-(4-(1H-1,2,4-Triazol-1-yl)benzyl)-4-chloro-2-methoxyquinolin-6-yl)(hydroxy)(1-methyl-1H-imidazol-5-yl)methyl)benzonitrile], the IC50 was found to be 560 nM.
Take `COc1nc2ccc(C(O)(c3oc(C)nc3C)c3cnnn3C)cc2c(Cl)c1Cc1ccc(C(F)(F)F)cc1` (single isomer, unassigned) [Example 156c, (4-chloro-2-methoxy-3-(4-(trifluoromethyl)benzyl)quinolin-6-yl)(2,4-dimethylozazol-5-yl)(1-methyl-1H-1,2,3-triazol-5-yl)methanol]: the concentration for half-maximal inhibition (IC50) was 3.3 nM.
On the same count and under the same terms, as for `COc1nc2ccc(C(O)(c3ccccc3)C3CCN(C(C)=O)CC3)cc2c(Cl)c1Cc1ccc(-n2ccnc2)cc1` (centres unmarked) [Example 16c], the figure is 10 nM; as for `COc1nc2ccc(C(O)(c3ccc(F)cc3)C3CCN(C(C)=O)CC3)cc2c(Cl)c1Cc1ccc(-n2cccn2)cc1` (single isomer, unassigned) [Example 157c, 1-(4-((3-(4-(1H-Pyrazol-1-yl)benzyl)4-chloro-2-methoxyquinolin-6-yl)(4-fluorophenyl)(hydroxy)methyl)piperidin-1-yl)ethanone], 370 nM.
Take `COc1nc2ccc(C(O)(c3cncn3C)c3cnnn3C)cc2c(Cl)c1Cc1ccc(C(F)(F)F)cc1` (single isomer, unassigned) [Example 89c, (4-Chloro-2-methoxy-3-(4-(trifluoromethyl)benzyl)quinolin-6-yl)(1-methyl-1H-1,2,3-triazol-5-yl)(1-methyl-1H-imidazol-5-yl)methanol]: the half-inhibitory concentration (IC50) is below 0.1 nM.
Take `COc1nc2ccc(C(O)(c3ccccc3)C3CCN(C(C)=O)CC3)cc2c(Cl)c1Cc1ccc(-n2ccnc2)cc1` (centres unmarked) [Example 16b]: the concentration for half-maximal inhibition (IC50) was 91 nM.
Consider `CNC(c1ccc2nc(OC)c(Cc3ccc(C(F)(F)F)cc3)c(Cl)c2c1)(c1ccc(C)nc1C)c1cnnn1C` (single isomer, unassigned) [Example 121c, 1-(4-Chloro-2-methoxy-3-(4-(trifluoromethyl)benzyl)quinolin-6-yl)-1-(2,6-dimethylpyridin-3-yl)-N-methyl-1-(1-methyl-1H-1,2,3-triazol-5-yl)methanamine•TFA], for which the IC50 worked out at 180 nM.
Still for that read-out and setting: under `CCc1nc2ccc(C(O)(c3cnnn3C)c3cnc(C)n3C)cc2c(Cl)c1Cc1ccc(C(F)(F)F)cc1` (single isomer, unassigned) [Example 25c, (4-Chloro-2-ethyl-3-(4-(trifluoromethyl)benzyl)quinolin-6-yl)(1,2-dimethyl-1H-imidazol-5-yl)(1-methyl-1H-1,2,3-triazol-5-yl)methanol] stands 1.8 nM; under `COc1nc2ccc(C(O)(c3cccnc3)c3ccc(Cl)c(Cl)c3)cc2c(Cl)c1Cc1ccc(-n2cccn2)cc1` (single isomer, unassigned) [Example 161b, (3-(4-(1H-Pyrazol-1-yl)benzyl)-4-chloro-2-methoxyquinolin-6-yl)(3,4-dichlorophenyl)(pyridin-3-yl)methanol], 1000 nM.
Take `Cn1cncc1C(O)(c1ccc(C(F)(F)F)nc1)c1ccc2nc(N3CC(F)C3)c(Cc3ccc(-n4cccn4)cc3)c(Cl)c2c1` (single isomer, unassigned) [Example 147b, {4-Chloro-2-(3-fluoroazetidin-1-yl)-3-[4-(1H-pyrazol-1-yl)benzyl]quinolin-6-yl}(1-methyl-1H-imidazol-5-yl)[6-(trifluoromethyl)pyridin-3-yl]methanol]: the half-maximal inhibitory concentration (IC50) amounted to 210 nM.
Take `COc1nc2ccc(C(O)(c3ccc(F)cc3)c3cccnc3)cc2c(Cl)c1Cc1ccc(-n2cccn2)cc1` (single isomer, unassigned) [Example 158b, (3-(4-(1H-Pyrazol-1-yl)benzyl)-4-chloro-2-methoxyquinolin-6-yl)(4-fluorophenyl)(pyridin-3-yl)methanol]: the IC50 was 570 nM.
Same read-out and setting: under `COc1nc2ccc(C(O)(c3cncn3C)C3CCOCC3)cc2c(Cl)c1Cc1ccc(-n2cccn2)cc1` (single isomer, unassigned) [Example 1c, (3-(4-(1H-Pyrazol-1-yl)benzyl)-4-chloro-2-methoxyquinolin-6-yl)(1-methyl-1H-imidazol-5-yl)(tetrahydro-2H-pyran-4-yl)methanol] stands 30 nM; under `COc1nc2ccc(C(O)(c3ccc(C#N)cc3)c3cncn3C)cc2c(Cl)c1Cc1ccc(-n2cncn2)cc1` (single isomer, unassigned) [Example 14c, 4-((3-(4-(1H-1,2,4-Triazol-1-yl)benzyl)-4-chloro-2-methoxyquinolin-6-yl)(hydroxy)(1-methyl-1H-imidazol-5-yl)methyl)benzonitrile], 30 nM.
Still for that read-out and setting: under `Cc1cc(C(O)(c2ccc(C(F)(F)F)nc2)c2cncn2C)cc2c(Cl)c(Cc3ccc(-n4cccn4)cc3)c(N3CCC3)nc12` (single isomer, unassigned) [Example 137b, {2-Azetidin-1-yl-4-chloro-8-methyl-3-[4-(1H-pyrazol-1-yl)benzyl]quinolin-6-yl}(1-methyl-1H-imidazol-5-yl)[6-(trifluoromethyl)pyridin-3-yl]methanol] stands 220 nM.
Same read-out and setting: under `COc1nc2ccc(C(O)(c3ccccn3)c3cncn3C)cc2c(Cl)c1Cc1cc2ccccc2s1` (single isomer, unassigned) [Example 59c, (3-(Benzo[b]thiophen-2-ylmethyl)-4-chloro-2-methoxyquinolin-6-yl)(1-methyl-1H-imidazol-5-yl)(pyridin-2-yl)methanol] stands 1100 nM.
